According to PubChem BioAssay AID1346428 (National Center for Advancing Translational Sciences (NCATS), 2018):
Screen size: about 48,000 compounds; about 1,200 (2.5%) were called active. Another 2% or so got no clear call; they are omitted.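 The calls were made as follows: active = activation of at least 60% and not above a set upper limit (about 1 call in 100 departs from these limits); inconclusive = activation of 40% to 60%, or above that upper limit; inactive = activation under 40%.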 Some of the results follow.

Molecular target: Probable G-protein coupled receptor 32 (Homo sapiens) (UniProt O75388)
Chain of UniProt O75388 (O75388 whole entry, looked up): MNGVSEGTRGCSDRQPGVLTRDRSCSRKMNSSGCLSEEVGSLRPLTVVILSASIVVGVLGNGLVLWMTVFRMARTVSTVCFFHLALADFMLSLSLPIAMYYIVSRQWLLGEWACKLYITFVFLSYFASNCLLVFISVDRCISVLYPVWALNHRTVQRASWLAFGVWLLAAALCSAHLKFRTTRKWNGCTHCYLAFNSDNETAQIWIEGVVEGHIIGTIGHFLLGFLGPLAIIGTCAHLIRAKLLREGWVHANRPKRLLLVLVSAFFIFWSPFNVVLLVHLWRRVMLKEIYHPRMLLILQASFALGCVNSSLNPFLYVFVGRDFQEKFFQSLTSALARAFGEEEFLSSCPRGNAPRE
Assay: qHTS for Agonists of Human Resolvin D1 Receptor DRV1; also: 0% is about no effect
Conditions: CHO-K1 GPR32 beta-arrestin PathHunter luminescence, 90 min; at 76.9 µM; active compounds read high; zero percent set by DMSO-only wells
Procedure, shortened: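 Readings come from a cell-based beta-arrestin complementation format: CHO-K1 GPR32 stable cells (2,500/well) treated 90 min with compounds, then beta-Gal substrate added for 1 h before chemiluminescence imaging.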

SMILES	activation
CC(C)CCCC(C)NCCC(C)C (configuration not stated)	inactive: -4.44%
CCc1noc(-c2ccc(N3CCC(C)CC3)c([N+](=O)[O-])c2)n1	inactive: -20.9%
Cc1cccc(OCCn2c(SCC(N)=O)nc3ccccc32)c1	inactive: 11.3%
Cc1nn2c(=O)cc(COC(=O)c3ccc(NC(=O)CCc4ccccc4)cc3)nc2s1	inactive: -11.8%
CCC(Sc1nc2cc3c(cc2c(=O)n1CCCCCC(=O)NCc1ccc2c(c1)OCO2)OCO3)C(=O)NCCCOC (configuration not stated)	inactive: -19.3%
COc1ccc(CCNC(=O)C(=O)NCC(c2ccco2)S(=O)(=O)c2cccs2)cc1 (configuration not stated)	inactive: -7.97%
CC(C)C(=O)Nc1ccccc1C(=O)OCc1cc(=O)n2nc(C3CC3)sc2n1	inactive: 8.2%
Cc1c(Cl)cccc1NC(=O)c1cc(-c2cccc(Cl)c2)on1	inactive: -3.47%
COc1cc2c(C(=O)N3CCN(c4cccc(Cl)c4)CC3)cn(C)c(=O)c2cc1OC	inactive: 6.83%
O=C(CN1C(=O)c2cccnc2Oc2ccc(Cl)cc21)NCCCN1CCCCC1	inactive: -2.08%
O=C(Nc1cccc(Br)c1)Nc1nc2c(s1)CCCCCC2	active: 113%
Cc1ccn2c(c1)nc(=O)c1cc(S(=O)(=O)N3CCCCC3)ccc12	inactive: 16.7%
COc1ccc(NC(=O)c2cnc(N3CCOCC3)c3ccccc23)cc1OC	inactive: -8.69%
Cc1cccc(-c2nc3cc(NC(=O)c4ccc(OCC(C)C)cc4)ccc3o2)c1	inactive: -16.7%
CC(C)[C@@H]1CC[C@@H](C)C[C@@H]1P(=O)(c1ccccc1)c1ccccc1	inactive: -13.4%
CCOC(=O)N1CCC(NC(=O)c2cnn(-c3ccc(C)cc3)c2-n2cccc2)CC1	inactive: -15%
Cc1cccn2c(=O)c3cc(C(=O)NC(C)C)n(C)c3nc12	inactive: -6.84%
O=C(Nc1ccc2nc(SCCOc3ccccc3)sc2c1)c1ccco1	inactive: 47.6%
CCOc1ccc(NC(=O)NC(C)c2c(-n3cccc3)sc3c2CCN(CC)C3)cc1 (configuration not stated)	inactive: -15.8%
COc1cccc(CCNC(=O)c2ccc(Cn3c(SCc4ccccc4)nc4cccnc43)cc2)c1	inactive: -15.3%
CCOc1ccc(NC(=O)Cn2cc(C(=O)c3ccc(F)cc3)c(=O)c3cc4c(cc32)OCO4)cc1	inactive: -5.1%
Cc1ccccc1NC(=O)C1CCN(C(=O)c2ccc(F)cc2)CC1	inactive: 5.84%

SMILES	activation
COc1ccc(-c2nc3ccccc3n2Cc2ccc(C(C)C)cc2)cc1	inactive: -35.4%
CC(=O)Nc1ccc2nc(SCCOc3ccc(C)cc3)sc2c1	inactive: 44.8%
COc1ccc(Nc2ncnc3scc(-c4ccc(F)cc4)c23)cc1	inactive: -0.434%
COc1ccc(Cn2c(SCc3ccc(C(=O)NC4CCCCC4)cc3)nc3cccnc32)cc1	inactive: 19.8%
COc1ccccc1-c1cc(C(F)(F)F)nc(S(=O)(=O)CCCC(=O)Nc2ccccc2F)n1	inactive: -21%
CCc1c(CN2CCN(c3ccc(F)cc3)CC2)csc1C	inactive: 23.1%
CC1CCc2c(N3CCC(O)CC3)c(F)cc3c(=O)c(C(=O)O)cn1c23 (configuration not stated)	inactive: -45.4%
COc1ccc(NC(=O)c2sc3nc(C)c(C(=O)Nc4ccc(C)cc4C)c(-c4sccc4C)c3c2N)cc1	inactive: -22.1%
COc1cc2c(cc1NC(=O)COc1cc(C)cc(C)c1)oc1ccccc12	inactive: -9.99%
COCCNc1nc2c(S(=O)(=O)c3ccccc3)nnn2c2ccc(Cl)cc12	inactive: -3.57%
O=C(COc1ccc(Cl)cc1)NCCc1csc(-c2ccc(C(F)(F)F)cc2)n1	inactive: -19%
COc1ccc(C)cc1Nc1nc2c(S(=O)(=O)c3cc(C)ccc3C)nnn2c2ccsc12	inactive: -5.41%
Cc1ccc(CN2CCC(CNC(=O)Nc3ccccc3F)CC2)cc1	inactive: 8.97%
CN(C)c1ccc(C(=O)Nc2sc(Nc3ccccc3)nc2C(N)=O)cc1	inactive: -14.7%
Cc1oc2c(cc(NS(=O)(=O)c3ccc(Br)cc3)c3ccccc32)c1C(=O)OCc1ccccc1	inactive: -3.82%
CCCCCn1c(=O)[nH]c2cc(C(=O)N3CCN(c4ccc(OC)cc4)CC3)ccc2c1=O	inactive: 38.2%
COc1ccc(Cn2c(CCC(=O)Nc3ccc(Br)c(C)c3)nc3cccnc32)cc1	inactive: -12.2%
O=C(Nc1cc(Cl)cc(Cl)c1)c1ccc(F)c(S(=O)(=O)N2CCCC2)c1	inactive: 22.8%
COc1cc(OC)c(C(=O)NCc2nc(-c3ccccc3)no2)cc1OC	active: 70.7%
CCCC(=O)Oc1c(Sc2ccc(C)cc2)c(C)nn1-c1ccccc1	inactive: -11.6%
CCc1ccc(CN(Cc2ccco2)c2cnc(S(C)(=O)=O)nc2C(=O)Nc2ccc(C)c(Cl)c2)cc1	inactive: -21.5%
CCOC(=O)C1CCC(CN(Cc2ccc(OC)cc2)S(=O)(=O)c2ccc(C)cc2)CC1 (configuration not stated)	inactive: -5.57%

SMILES	activation
O=C(Cn1nnc(-c2ccc(C(F)(F)F)cc2)n1)NCCc1ccccc1	inactive: -4.19%
Cc1cc(C)cc(NS(=O)(=O)c2cc3[nH]c(=O)c(=O)[nH]c3cc2C)c1	inactive: 19.6%
CC(=O)Nc1ccc(S(=O)(=O)N2CCC(N3CCN(Cc4ccc(C)cc4)C(=O)C3=O)CC2)cc1	inactive: -2.36%
CC1Cc2cc(S(=O)(=O)CCC(=O)Nc3cccc(F)c3)ccc2N1C(=O)C1CC1 (configuration not stated)	inactive: 7.94%
O=C(Cn1ncn2c(cc3cc(F)ccc32)c1=O)NC1CCCCC1	inactive: -2.25%
COC(=O)c1ccccc1NC(=O)c1cc2ccccn2n1	inactive: 12%
Cc1ccc(NC(=O)CN(C)S(=O)(=O)c2cccc3cccnc23)c(C)c1	inactive: -3.68%
CC(C)CC(=O)NCC(c1ccc2c(c1)OCO2)N1CCN(c2ccccc2F)CC1 (configuration not stated)	inactive: -20%
CCN(c1ccc(OC)cc1)S(=O)(=O)c1nnc(NC(=O)COc2ccc(F)cc2)s1	inactive: -5.37%
Cc1cccc(-c2nc(SCC(=O)NCC3CCCO3)c3c(=O)n(C)c(=O)n(C)c3n2)c1 (configuration not stated)	inactive: -5.86%
Cc1ccccc1N(C)C(=O)c1noc2c1COc1ccccc1-2	inactive: -26.8%
CCOC(=O)c1ccc(NC(=O)Nc2ccc3snnc3c2)cc1	inactive: 18.5%
CCCN(CCc1cccs1)[C@H]1CCc2c(O)cccc2C1	inactive: 36.7%
O=C(CCn1c(=O)c2cccn2c2cccnc21)NCc1ccccc1Br	inactive: -7.54%
CCOc1ccc(-c2noc(CSc3nnc(-c4ccccc4)n3-c3ccccc3)n2)cc1	inactive: 2.41%
CCC(=O)Nc1ccc(C)cc1-c1nc2ccccc2n(C(C)C(=O)Nc2ccccc2CC)c1=O (configuration not stated)	inactive: -27.7%
CCC(CC)C(=O)Nc1ccc(C(=O)OCc2cc(=O)n3nc(C4CC4)sc3n2)cc1	inactive: -13%
CN1C(=O)c2ccccc2Sc2ccc(NC(=O)Cc3c(F)cccc3Cl)cc21	inactive: -39.7%
Cc1ccc(-n2nc(C(=O)N3CCN(c4ccccc4F)CC3)c3c4ccccc4n(C)c3c2=O)cc1	inactive: -4.2%
CCN(CC)CCCNC(=O)CCCn1c(=O)[nH]c2ccc(Br)cc2c1=O	inactive: -19.3%
CC(=O)c1ccccc1NS(=O)(=O)c1cc2c(cc1C)NC(=O)CO2	inactive: -11.9%
CCC(C(=O)N1CCN(c2cc(Cl)ccc2C)CC1)n1nc(C)c2sc3ccccc3c2c1=O (configuration not stated)	inactive: 1.97%

SMILES	activation
Cc1ccc(N(C)S(=O)(=O)c2ccc3c(c2)C(C)(C)C(=O)N3C)cc1C	inactive: 4.49%
O=C(NCc1ccccc1Cl)c1cccn1-c1nnc(N2CCCCC2)s1	inactive: -12.2%
Cc1ccc(-n2nnnc2CNC(=O)c2ccc(F)cc2)cc1C	inactive: -15.1%
COc1ccccc1-c1nn2c(=O)cc(CN3CCN(S(=O)(=O)c4ccc(C)cc4)CC3)nc2s1	inactive: -11.5%
Brc1ccc(CNCCCSc2nnnn2-c2ccccc2)cc1	inactive: -17.3%
Cc1cccc(-c2noc(CNC(=O)c3ccco3)n2)c1	inactive: -12.5%
CCOC(=O)c1ccc(NC(=O)C2Cc3ccccc3C(=O)O2)cc1 (configuration not stated)	inactive: -1.53%
Clc1cccc(N2CCN(c3ncnc4c3nc3n4CCCC3)CC2)c1	inactive: 13.2%
Cc1cc(=O)n(-c2ccccc2)n1C	inactive: -9.84%
CC(=O)Nc1ccc(C)cc1-c1nc2ccccc2n(CC(=O)c2ccc(Cl)cc2)c1=O	inactive: -7%
COc1ccc(C(=O)NCC(c2cccs2)S(=O)(=O)c2ccc(F)c(C)c2)cc1 (configuration not stated)	active: 66.1%
CC(=O)N(Cc1cccnc1)c1nc2ccc(F)cc2s1	inactive: -12.3%
COc1cccc2cc(-c3cn4c(n3)sc3cc(F)ccc34)c(=O)oc12	inactive: -12.5%
Cc1ccc(CNC(=O)NC2COc3ccccc3C2)cc1 (configuration not stated)	inactive: 4.24%
Cc1ccc(C2=Nc3ccccc3N(CC(=O)Nc3ccccc3C)C(=O)C2)cc1C	inactive: -6.53%
CCOc1ccccc1C(=O)N1CCN(CCc2ccccn2)CC1	inactive: -8.19%
Cc1ccc(N2CCn3c2nc2c3c(=O)n(CCCc3ccccc3)c(=O)n2C)cc1	inactive: -7.69%
COc1ccc(OC)c(CNC(=O)c2ccccc2NC(=O)c2nsc3ccccc23)c1	inactive: -5.36%
Cc1cc(C)c(NC(=O)Cn2c(=O)n(CCc3ccccc3)c(=O)c3ccccc32)c(C)c1	inactive: -11.7%
Cc1c(Cl)cccc1NC(=O)Cn1nc(C(F)(F)F)c2c1CCC2	inactive: -9.2%
Cc1ccc(NC(=O)C2CCCN(S(=O)(=O)c3cccc4cccnc34)C2)c(Br)c1 (configuration not stated)	inactive: -19%
